# Laboratory results published in the supplement of paper PMC3334620.
# The full ranking holds about 33,000 sequences; the median of “E-score (-0.5 to 0.5)” is about -0.054, and the highest 2% start at about 0.39. The list shows a part of the results.
# Target: Ylr278c (UniProt Q05854)
# Assay: PBM E-score (8-mer binding enrichment) (E-score (-0.5 to 0.5)); higher = stronger / more preferred TF binding; most listed sequences are background and not binding sites
# Details: protein concentration: 200 nM; construct: GST-DNA-binding domain
# Description: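 Universal 'all 10-mer' protein binding microarrays (Agilent AMADID 015681) probed with GST-tagged S. cerevisiae TFs (full-length or DBD) made by in vitro transcription/translation (PURExpress), about 100-200 nM. Bound TF was detected with fluorescent anti-GST. Each ungapped 8-mer (which stands for itself and its reverse complement) is scored by the PBM enrichment score (E-score), a modified Wilcoxon-Mann-Whitney statistic from -0.5 to +0.5, computed with the Universal PBM Analysis Suite. Scale: above 0.35 generally sequence-specific binding.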
row,Sequence,PBM E-score
1,AGATATAA,-0.0869
2,CTTTTTCA,-0.113
3,CTAAAGAC,-0.12
4,ACTGATTG,-0.265
5,AACCTATT,0.0111
6,AGGGAACG,-0.106
7,CCCTAAGA,-0.221
8,ATCCACCC,-0.0998
9,TCAGTGAA,-0.101
10,ACCTGGCG,-0.0748
11,CCATGATC,-0.214
12,GGCCTAAC,0.0676
13,CAACTGCC,-0.00091
14,GCTAGGGA,-0.164
15,CAAAGTCA,-0.0965
16,AGATGCAC,-0.0601
17,CTATTCGA,-0.346
18,CTTGCCGC,0.0907
19,GAAGCTTC,0.0167
20,GAATTCAA,0.084
21,GGCATCCA,-0.0829
22,CCGAGGTA,0.186
23,GGTTAGCA,-0.0985
24,AAAAATGC,0.115
25,AAGCATTG,-0.221

row,Sequence,PBM E-score
1,GAACGGAC,0.279
2,AGGAGATC,0.0493
3,AGCCTTAA,0.0015
4,AAGGGTAC,-0.222
5,AACAAGTG,-0.215
6,GTGGAGCA,-0.158
7,AATCTTCA,-0.00179
8,CGACCCAC,0.0789
9,AGGAAGCC,-0.0235
10,GCTCCGAA,0.464
11,AGTATTCC,0.165
12,CAGCACTA,-0.205
13,AAGTATTG,-0.118
14,CCCAGTTC,0.138
15,GGAGCCGA,0.201
16,TGTCCACA,-0.105
17,TATTTGCA,-0.24
18,ACACTGAT,-0.339
19,GTGTTTGA,-0.191
20,CGATCGAA,0.153
21,ATGGCGCA,-0.0472
22,AATCCGCG,0.323
23,ACTATTTA,0.022
24,CCAGTACC,-0.00838
25,GAGTAGTA,-0.0609

row,Sequence,PBM E-score
1,CCTACCCG,0.00947
2,CACATAGC,0.0361
3,AGCCGGGG,0.26
4,AGCTATGC,-0.387
5,CAATGGCA,0.0325
6,CTACTTAC,-0.199
7,CATCTGAC,-0.0942
8,AATTCTGT,-0.0602
9,GCCGAACC,0.233
10,AACAATTA,0.139
11,GGTGGGAC,-0.0365
12,AACTATCC,0.0243
13,ATTACACC,0.0531
14,CTACGCAC,-0.126
15,CGTTACAC,-0.00317
16,GCGTTTCA,-0.0678
17,GGTGTCCA,0.00459
18,ACTGAAAG,0.0236
19,CCCTTGGA,-0.101
20,CCAGCGTA,-0.0965
21,AGTCGCCG,0.207
22,AAGTTGTC,0.0226
23,CAGCTCGA,-0.0471
24,GAAATCAC,0.189
25,AAAATTCT,0.0373

row,Sequence,PBM E-score
1,CTGTTCCC,-0.0628
2,CGGGGATC,0.408
3,AGTACACG,0.0148
4,AGAAACGG,0.14
5,GCTGATTA,-0.0428
6,GACGCGTA,-0.179
7,GGTAACAA,0.117
8,CATACTAC,-0.0878
9,TACCTGCA,-0.0718
10,CACTCGGA,0.329
11,ACCCCGCT,0.282
12,CCAGTTGA,-0.14
13,GAGAAAGC,0.0149
14,GATAGATC,-0.0349
15,ACTCCTGA,0.0258
16,AACCACGT,-0.315
17,AATCATAA,-0.2
18,ATGTGGTC,-0.222
19,TAAGTGCA,-0.0655
20,CCGCTACC,0.162
21,AGACACTA,0.066
22,ACCCAAAT,-0.0354
23,GATAGGGA,-0.132
24,GGATGCTA,-0.0596
25,ATGTCCCA,-0.0785

row,Sequence,PBM E-score
1,ATTCCAAG,-0.077
2,ATGCTCAC,-0.0485
3,CCTTCGCC,0.0639
4,ATTCGCGG,0.278
5,ACATCTCC,0.322
6,AAGTCTAA,-0.133
7,CAATTTAG,-0.127
8,CGGGTCGC,0.118
9,TAGGTAAA,-0.0912
10,TGTAGAAA,-0.108
11,TCTCATAA,-0.14
12,AACCACTT,-0.0892
13,AGCTTCCC,-0.166
14,TGCTACAA,-0.0276
15,AACCTGGA,-0.0326
16,CCCCTCAG,-0.124
17,CATACAAC,-0.148
18,CCGGATTC,0.405
19,CTCCTACA,-0.0245
20,CTTAATGC,-0.0845
21,AAACAATT,0.0357
22,AAACGGTG,-0.15
23,TACGCCCA,-0.0405
24,CGGTATAG,0.166
25,CATCCTTC,-0.0925

row,Sequence,PBM E-score
1,AACAATAT,0.138
2,AGGGGAGC,-0.117
3,CACCGGAG,0.443
4,ACAAACCC,0.0756
5,GGACGGCC,0.14
6,CTAATTAA,-0.234
7,GAACTTCA,-0.151
8,GGTGTCAA,-0.0561
9,AGTGCCGA,0.231
10,GAGATAGC,0.0195
11,CAGAGTTC,-0.0857
12,CCCGCTAG,0.183
13,GCTAAAAC,0.056
14,CGCCTCAC,0.122
15,CTAGCCTA,-0.0988
16,CCTGACGA,-0.245
17,CGCCCTTC,0.0938
18,AGGACGGG,0.00745
19,TAGCGTAA,-0.0517
20,CTCTGCGC,-0.0258
21,AGTATTGC,-0.103
22,GGTACAAC,-0.0892
23,GAATTTCA,0.0189
24,CTCATTGC,-0.0622
25,CCAGGCAC,-0.0214

row,Sequence,PBM E-score
1,CCCTCTCG,-0.157
2,CAACCAAC,-0.219
3,TTCGGAAA,0.419
4,ATTAGATA,-0.169
5,AGCCTCCA,-0.172
6,TGAGGGCA,-0.149
7,GGGTCAAC,0.0699
8,ACATCTAC,-0.0382
9,GGGTTCGA,-0.0929
10,GCAGTTAA,-0.067
11,TCCTACCA,-0.0857
12,ATTCCTTG,-0.136
13,GAAGGAAA,-0.227
14,AATATCCC,0.211
15,ATTAGGGC,-0.125
16,CAAATGCG,0.068
17,ATTGAACC,-0.0437
18,AGCCGCAC,-0.0107
19,AACGTCAG,-0.23
20,CATCGTTC,-0.0178
21,AACGCTGT,-0.0769
22,GGAGCGAC,0.182
